Measurements as given in the supplement of paper PMC4604168 (melanoma cell lines).
Some of the results follow. Most values come without repeats; read them as rough.

system: UACC257; assay: cell count relative to DMSO control; melanoma cells; higher = more viable cells; settings: library dose: low library concentration; 72 h; first compound 0.4 µM
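Also: cell number obtained by counting DAPI-stained nuclei in high-throughput microscope images with image analysis software, screen run in 1,536-well plates.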

SMILES | cell count
Cn1sc(=O)n(Cc2ccccc2)c1=O + c1cc(-c2cnn3cc(-c4ccc(OCCN5CCCCC5)cc4)cnc23)ccn1 [Dorsomorphin] (partner dose 0.4 µM) | 105%
C[C@@H](N)c1ccc(C(=O)Nc2ccnc3[nH]ccc23)cc1 + Oc1nc(-c2ccc(C(F)(F)F)cc2)nc2c1CSCC2 [XAV939] (partner dose 2 µM) | 65.4%
CCCCCCCCCCCCCCCCCCOP(=O)([O-])OC1CC[N+](C)(C)CC1 [Perifosine] + Cn1cc(/C=C2\C(=O)Nc3cccnc32)c2ccccc21 [GW441756] (partner dose 0.4 µM) | 76.9%
C[C@@H](N)c1ccc(C(=O)Nc2ccnc3[nH]ccc23)cc1 + CN(NC(=O)CC(=O)NN(C)C(=S)c1ccccc1)C(=S)c1ccccc1 [STA4783] (partner dose 0.006 µM) | 56.4%
C[C@@H](N)c1ccc(C(=O)Nc2ccnc3[nH]ccc23)cc1 + COc1cc2ncnc(Nc3ccc(Oc4ccccc4)cc3)c2cc1OC [SrcI1] (partner dose 2 µM) | 73.6%
Cn1sc(=O)n(Cc2ccccc2)c1=O + N#Cc1c(O)c2c(-c3ccc(-c4ccccc4O)cc3)csc2[nH]c1=O [A769662] (partner dose 2 µM) | 82.9%
CCCCCCCCCCCCCCCCCCOP(=O)([O-])OC1CC[N+](C)(C)CC1 [Perifosine] + c1cc(-c2cnn3cc(-c4ccc(OCCN5CCCCC5)cc4)cnc23)ccn1 [Dorsomorphin] (partner dose 0.4 µM) | 87.9%
Cn1sc(=O)n(Cc2ccccc2)c1=O + O=c1cc(-c2cccc3c2Sc2ccccc2S3)oc(N2CCOCC2)c1 [KU55933] (partner dose 1 µM) | 98.9%
C[C@@H](N)c1ccc(C(=O)Nc2ccnc3[nH]ccc23)cc1 + COc1cc2c(Oc3ccc4[nH]c(C)cc4c3F)ncnc2cc1OCCCN1CCCC1 [cediranib] (partner dose 0.4 µM) | 58.3%
C[C@@H](N)c1ccc(C(=O)Nc2ccnc3[nH]ccc23)cc1 + COc1ccc(-c2ccc3c(N4CCOCC4)nc(N4C[C@@H](C)O[C@@H](C)C4)nc3n2)cc1CO [KU0063794] (partner dose 0.02 µM) | 84%
C[C@@H](N)c1ccc(C(=O)Nc2ccnc3[nH]ccc23)cc1 + COC(=O)c1sccc1S(=O)(=O)Nc1ccc(Nc2ccccc2)cc1OC [GSK0660] (partner dose 1 µM) | 83.2%
C[C@@H](N)c1ccc(C(=O)Nc2ccnc3[nH]ccc23)cc1 + COc1cc(Nc2ncc(F)c(Nc3ccc4c(n3)NC(=O)C(C)(C)O4)n2)cc(OC)c1OC [Tamatinib] (partner dose 0.4 µM) | 56.4%
Cn1sc(=O)n(Cc2ccccc2)c1=O + CCc1ccc(CCOc2ccc(CC3SC(=O)NC3=O)cc2)nc1 [pioglitazone] (partner dose 2 µM) | 99.7%
Cn1sc(=O)n(Cc2ccccc2)c1=O + O=C(O)C(=O)Nc1sc2c(c1C(=O)O)CCNC2 [TCS401] (partner dose 1.66667 µM) | 101%
CCCCCCCCCCCCCCCCCCOP(=O)([O-])OC1CC[N+](C)(C)CC1 [Perifosine] + O=S(=O)(c1ccccc1)N(CC(F)(F)F)c1ccc(C(O)(C(F)(F)F)C(F)(F)F)cc1 [T0901317] (partner dose 1.4 µM) | 81.3%
CCCCCCCCCCCCCCCCCCOP(=O)([O-])OC1CC[N+](C)(C)CC1 [Perifosine] + N#Cc1c(O)c2c(-c3ccc(-c4ccccc4O)cc3)csc2[nH]c1=O [A769662] (partner dose 2 µM) | 115%
C[C@@H](N)c1ccc(C(=O)Nc2ccnc3[nH]ccc23)cc1 + C[C@@H]1CCN(C(=O)CC#N)C[C@@H]1N(C)c1ncnc2[nH]ccc12 [CP690550] (partner dose 1 µM) | 79.7%
Cn1sc(=O)n(Cc2ccccc2)c1=O + Oc1nc(-c2ccc(C(F)(F)F)cc2)nc2c1CSCC2 [XAV939] (partner dose 2 µM) | 69.2%
CCCCCCCCCCCCCCCCCCOP(=O)([O-])OC1CC[N+](C)(C)CC1 [Perifosine] + CC(C)CCN1c2nc(Nc3cc(F)c(O)c(F)c3)ncc2N(C)C(=O)C1C [BID1870] (partner dose 0.2 µM) | 98.6%
Cn1sc(=O)n(Cc2ccccc2)c1=O + COc1cc2ncnc(Nc3ccc(Oc4ccccc4)cc3)c2cc1OC [SrcI1] (partner dose 2 µM) | 116%

SMILES | cell count
Cn1sc(=O)n(Cc2ccccc2)c1=O + COC(=O)c1sccc1S(=O)(=O)Nc1ccc(Nc2ccccc2)cc1OC [GSK0660] (partner dose 1 µM) | 93.5%
Cn1sc(=O)n(Cc2ccccc2)c1=O + CC1(C)NC(=O)N(c2ccc([N+](=O)[O-])c(C(F)(F)F)c2)C1=O [nilutamide] (partner dose 1 µM) | 92.3%
Cn1sc(=O)n(Cc2ccccc2)c1=O + COc1ccc(COc2ccc(Cc3cnc(N)nc3N)cc2OC)cc1 [GW2580] (partner dose 1 µM) | 87.9%
C[C@@H](N)c1ccc(C(=O)Nc2ccnc3[nH]ccc23)cc1 + CCCCCCCCCCCC1=C(O)C(=O)C=C(O)C1=O [Embelin] (partner dose 1.2 µM) | 69.3%
CCCCCCCCCCCCCCCCCCOP(=O)([O-])OC1CC[N+](C)(C)CC1 [Perifosine] + O=C(O)c1ccc(-c2c[nH]c3ncc(-c4ccccc4)cc23)cc1C1CCCC1 [GSK650394] (partner dose 0.16 µM) | 64.9%
C[C@@H](N)c1ccc(C(=O)Nc2ccnc3[nH]ccc23)cc1 + CO[C@@H]1[C@H](N(C)C(=O)c2ccccc2)C[C@H]2O[C@]1(C)n1c3ccccc3c3c4c(c5c6ccccc6n2c5c31)C(=O)NC4 [Midostaurin] (partner dose 0.08 µM) | 54.8%
Cn1sc(=O)n(Cc2ccccc2)c1=O + CN(NC(=O)CC(=O)NN(C)C(=S)c1ccccc1)C(=S)c1ccccc1 [STA4783] (partner dose 0.006 µM) | 94%
Cn1sc(=O)n(Cc2ccccc2)c1=O + Oc1cc(-c2nc(-c3ccccc3)[nH]c2-c2ccncc2)ccc1Cl [L779450] (partner dose 0.2 µM) | 86%
CCCCCCCCCCCCCCCCCCOP(=O)([O-])OC1CC[N+](C)(C)CC1 [Perifosine] + Cc1cc([N+](=O)[O-])ccc1NS(=O)(=O)c1cc(Cl)ccc1Cl [FH535] (partner dose 1 µM) | 76.8%
C[C@@H](N)c1ccc(C(=O)Nc2ccnc3[nH]ccc23)cc1 + O=C(O)C(=O)Nc1sc2c(c1C(=O)O)CCNC2 [TCS401] (partner dose 1.66667 µM) | 54.7%
C[C@@H](N)c1ccc(C(=O)Nc2ccnc3[nH]ccc23)cc1 + COc1ccc(COc2ccc(Cc3cnc(N)nc3N)cc2OC)cc1 [GW2580] (partner dose 1 µM) | 86.4%
CCCCCCCCCCCCCCCCCCOP(=O)([O-])OC1CC[N+](C)(C)CC1 [Perifosine] + OCCn1cc(-c2cnc3nnn(Cc4ccc5ncccc5c4)c3n2)cn1 [PF04217903] (partner dose 1 µM) | 107%
C[C@@H](N)c1ccc(C(=O)Nc2ccnc3[nH]ccc23)cc1 + CN(C)S(=O)(=O)c1ccc2c(c1)/C(=C/c1cc3c([nH]1)CCCC3)C(=O)N2 [SU6656] (partner dose 0.4 µM) | 69.6%
Cn1sc(=O)n(Cc2ccccc2)c1=O + Cc1cc([N+](=O)[O-])ccc1NS(=O)(=O)c1cc(Cl)ccc1Cl [FH535] (partner dose 1 µM) | 127%
Cn1sc(=O)n(Cc2ccccc2)c1=O + CC(C)CCN1c2nc(Nc3cc(F)c(O)c(F)c3)ncc2N(C)C(=O)C1C [BID1870] (partner dose 0.2 µM) | 84.5%
C[C@@H](N)c1ccc(C(=O)Nc2ccnc3[nH]ccc23)cc1 + c1cc(-c2cnn3cc(-c4ccc(OCCN5CCCCC5)cc4)cnc23)ccn1 [Dorsomorphin] (partner dose 0.4 µM) | 74.4%
CCCCCCCCCCCCCCCCCCOP(=O)([O-])OC1CC[N+](C)(C)CC1 [Perifosine] + CC(C)(C)c1cnc(CSc2cnc(NC(=O)C3CCNCC3)s2)o1 [SNS-032] (partner dose 0.01 µM) | 110%
C[C@@H](N)c1ccc(C(=O)Nc2ccnc3[nH]ccc23)cc1 + O=c1cc(-c2cccc3c2Sc2ccccc2S3)oc(N2CCOCC2)c1 [KU55933] (partner dose 1 µM) | 85.2%
CCCCCCCCCCCCCCCCCCOP(=O)([O-])OC1CC[N+](C)(C)CC1 [Perifosine] + C[C@@H]1CCN(C(=O)CC#N)C[C@@H]1N(C)c1ncnc2[nH]ccc12 [CP690550] (partner dose 1 µM) | 95.1%
